This is an account of results in publication PMC4336329 (PLoS ONE, 2015).

The whole screen tested about 310,000 compounds, of which about 2,200 (0.71%) showed an effect of 50% or more. Effects have a minus sign here. Some of the results follow.

The assay deals with human ether-à-go-go-related gene (hERG) potassium channel (human, UniProt Q12809). Put plainly: primary screen, population patch clamp on CHO cells stably expressing hERG.
Chain of human ether-à-go-go-related gene (hERG) potassium channel (Q12809 whole entry, looked up): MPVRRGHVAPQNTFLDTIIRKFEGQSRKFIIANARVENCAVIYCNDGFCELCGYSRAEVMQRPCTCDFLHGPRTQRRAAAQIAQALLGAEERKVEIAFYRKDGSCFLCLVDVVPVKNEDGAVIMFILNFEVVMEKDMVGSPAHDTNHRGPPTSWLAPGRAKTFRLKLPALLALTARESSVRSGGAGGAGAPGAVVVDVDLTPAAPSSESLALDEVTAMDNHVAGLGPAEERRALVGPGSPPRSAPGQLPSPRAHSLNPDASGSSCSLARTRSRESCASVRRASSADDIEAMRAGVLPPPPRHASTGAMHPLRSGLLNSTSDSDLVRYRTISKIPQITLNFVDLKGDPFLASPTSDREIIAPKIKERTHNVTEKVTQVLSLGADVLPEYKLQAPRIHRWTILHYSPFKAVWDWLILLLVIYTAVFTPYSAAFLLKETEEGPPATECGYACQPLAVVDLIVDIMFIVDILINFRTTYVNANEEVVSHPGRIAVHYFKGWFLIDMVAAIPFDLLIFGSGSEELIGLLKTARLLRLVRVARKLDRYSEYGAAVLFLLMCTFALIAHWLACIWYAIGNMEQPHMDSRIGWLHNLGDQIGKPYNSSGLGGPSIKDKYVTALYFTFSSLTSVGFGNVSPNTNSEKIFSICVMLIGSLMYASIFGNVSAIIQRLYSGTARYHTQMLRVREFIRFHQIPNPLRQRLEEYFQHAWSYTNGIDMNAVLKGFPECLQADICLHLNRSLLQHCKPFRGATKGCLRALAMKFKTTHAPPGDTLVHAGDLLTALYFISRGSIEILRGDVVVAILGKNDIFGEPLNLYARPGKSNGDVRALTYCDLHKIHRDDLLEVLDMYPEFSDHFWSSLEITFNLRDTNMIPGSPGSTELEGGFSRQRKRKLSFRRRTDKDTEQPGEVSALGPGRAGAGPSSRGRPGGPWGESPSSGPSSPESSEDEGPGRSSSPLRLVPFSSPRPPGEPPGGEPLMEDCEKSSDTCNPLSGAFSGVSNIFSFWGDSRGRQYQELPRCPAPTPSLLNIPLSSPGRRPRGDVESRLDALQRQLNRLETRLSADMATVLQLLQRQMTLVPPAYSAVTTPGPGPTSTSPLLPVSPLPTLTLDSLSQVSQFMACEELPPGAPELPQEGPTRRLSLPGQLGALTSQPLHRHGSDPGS
For the compound `COC(=O)c1ccccc1NC(=O)CCNC(=O)Cn1cnc2ccccc2c1=O`, the “hERG current change (%, negative = inhibition) at 1uM” value worked out at 6.78%.
Under `O=C(/C=C/c1ccccc1)CC(O)(c1ccccc1)C(F)(F)F` (centres unmarked) stands 8.8%; under `C/C(Cl)=C\CNC(C)c1ccccc1.Cl` (centres unmarked), 1.56%; under `CCCn1c(=O)c(C(=O)OCC)c(O)c2cc(Br)ccc21`, 16.7%.
Regarding `O=C(NC(=S)Nc1cc(C(F)(F)F)ccc1N1CCOCC1)c1ccco1`, the “hERG current change (%, negative = inhibition) at 1uM” value stood at 15.4%.
Under `COCCNC(=O)c1cc(-c2ccccc2)nn1CC1CC(c2cccc([N+](=O)[O-])c2)=NO1` (centres unmarked) stands -9.78%; under `Cc1ccc(S(=O)(=O)N2CCCCC2)cc1C(=O)N1CCN(CCO)CC1`, 5.58%; under `Cc1cccc(OCC(=O)N(Cc2cccs2)C2CCS(=O)(=O)C2)c1C` (centres unmarked), 4.47%.
In the case of `COc1ccc(/C=C/C(=O)OCC(=O)NC2CCCC2)cc1`, the “hERG current change (%, negative = inhibition) at 1uM” value is recorded as 6.94%.
`CC(C)c1cc(NC(=O)CSc2nnc(-c3ccccc3F)n2C)on1`: the “hERG current change (%, negative = inhibition) at 1uM” value came to 1.58%.
For `COc1ccc(-n2nc(C(=O)NCC(=O)Nc3cc(OC)c(OC)c(OC)c3)c3ccccc3c2=O)cc1Cl`, the “hERG current change (%, negative = inhibition) at 1uM” value is 13.7%.
Take `O=C(NC1=NCCS1)c1cccc(N2C(=O)c3ccccc3C2=O)c1`: the “hERG current change (%, negative = inhibition) at 1uM” value amounted to 6.67%.
Under `Cc1cccn2cc(-c3ccc(S(=O)(=O)N4CCOCC4)cc3)nc12` stands -10.1%; under `CN=C(Nc1ccc(C(=O)OC)s1)c1ccc(Cl)cc1`, 6.3%.
Regarding `CCCCNC(=O)c1ccc(N2CCOCC2)c(NS(=O)(=O)c2ccc(OC)cc2)c1`, the “hERG current change (%, negative = inhibition) at 1uM” value is listed as -5.44%.
Under `COc1ccc(/C(C)=N/NC(=S)Nc2cc(C)ccc2C)cc1` stands -3.64%.
Under `CCN(CCn1cccn1)C(=O)CC1C(=O)NCCN1Cc1cccc(OC)c1OC` (centres unmarked) stands 5.29%; under `CCc1nn(CC(=O)N(C)C2CCCCC2)c(=O)c2cc3cc(C)ccc3n12`, 7.98%; under `CCOC(=O)C(O)(CC(=O)Nc1cc(F)ccc1C)C(F)(F)F` (centres unmarked), 7.09%.
Under `O=[N+]([O-])c1ccc(S(=O)(=O)Nc2cccc(-c3ccc(N4CCOCC4)nn3)c2)cc1` stands -1.44%; under `Cc1ccccc1-c1cc(C(=O)NCc2ccc3c(c2)OCO3)n(CC2CC(c3cccnc3)=NO2)n1` (centres unmarked), -2.64%; under `COc1cc(N)c(C(=O)c2nccc3cc(OC)c(OC)cc23)cc1OC`, 14.7%.
Turning to `COc1ccccc1/C=c1\sc2nc(-c3ccccc3OC)nn2c1=O`, the “hERG current change (%, negative = inhibition) at 1uM” value is 11%.
Under `COc1ccc(Nc2nc(N3CCN(C)CC3)nc3ccccc23)c(OC)c1` stands -76.6%; under `COc1ccc(C(=O)C(OC(=O)c2ccccc2Cl)c2ccccc2)cc1` (centres unmarked), 10%.
Under `COC(=O)c1ccc(CN2C(=O)C3CCCCC3C2=O)o1` (centres unmarked) stands 8.41%; under `CN(C)S(=O)(=O)c1ccc(C(=O)NCC(C)(C)N2CCOCC2)cc1`, 15.7%; under `O=C1OC2(CCCCC2)OC(=O)C1=CNc1nc2ccccc2s1`, 10.2%.
On to `CCOP(=O)(OCC)c1nc(-c2cccc([N+](=O)[O-])c2)oc1N1CCCCC1`, for which the “hERG current change (%, negative = inhibition) at 1uM” value was 2.09%.
Take `Brc1cccc(-c2nnc3sc(CN4CCC5(CC4)OCCO5)cn23)c1`: the “hERG current change (%, negative = inhibition) at 1uM” value is -2.39%.
Under `CSc1nnc2c(n1)OC(C)=Nc1ccccc1-2` stands 5.23%; under `CC(C)(C)c1ccc(OCC(O)CN2CCCC2)cc1.Cl` (centres unmarked), 3.51%; under `COCc1cc(C)nc(NC2CC(C)(C)NC(C)(C)C2)c1C#N`, 20.3%.
Under `CC(=O)Nc1sc(-c2ccccc2)nc1-c1ccccc1` stands 17.4%.
Under `Cl.O=S(=O)(NCCCN1CCOCC1)c1ccc(F)c(Cl)c1` stands 1.93%.
Turning to `O=C(CN(c1ccccc1)S(=O)(=O)c1ccccc1)N1CCN(Cc2ccc3c(c2)OCO3)CC1`, the “hERG current change (%, negative = inhibition) at 1uM” value is given as 5.44%.
On to `COc1cccc(C(=O)Nc2ccc(S(=O)(=O)NCc3ccco3)cc2)c1`, for which the “hERG current change (%, negative = inhibition) at 1uM” value is -5.3%.
For the compound `CCCCNC(=O)Nc1ccc(Br)cn1`, the “hERG current change (%, negative = inhibition) at 1uM” value was -5.39%.
Take `Cc1ccc(-n2cccn2)c(CN2CCCC(C(=O)c3ccc4c(c3)OCO4)C2)c1` (centres unmarked): the “hERG current change (%, negative = inhibition) at 1uM” value is reported as -83.5%.
Under `COC(=O)[C@@H](NC(=O)NC1CCN(Cc2ccccc2)CC1)C(C)C` stands 13.6%.
Under `COC(=O)Cc1ccc(NC(=O)c2ccc(C(C)(C)C)cc2)cc1` stands 0.792%; under `Cc1cc(C)c(S(=O)(=O)N2CCN(C(=O)c3c(C)noc3C)CC2)c(C)c1`, 14%; under `CCN(CC)S(=O)(=O)c1ccc(Cl)c(NC(=O)CSc2cccc[n+]2[O-])c1`, -6.3%.
Under `CC(C)n1c2ccccc2c2cc([N+](=O)[O-])ccc21` stands 18.5%.
As for `CCOC(=O)c1ccc(NC(=O)c2ccc3c(c2)OCO3)cc1`, the “hERG current change (%, negative = inhibition) at 1uM” value came out at 13.4%.
As for `CN1CCN(C(=S)Nc2cc(S(=O)(=O)N3CCOCC3)ccc2Cl)CC1`, the “hERG current change (%, negative = inhibition) at 1uM” value was 8.54%.
Under `O=S1(=O)N=C2CCCCCN2C(c2ccc(Cl)cc2)N1` (centres unmarked) stands -1.39%; under `COc1ccc(Nc2ccc(Cl)cc2)c(C(=O)O)c1`, 3.13%.
Under `O=C(NC1(C(F)(F)F)NC(=O)N(C2CCCCC2)C1=O)c1ccco1` (centres unmarked) stands 5.14%.
As for `CC(C)C(=O)Nc1c(-c2ccccc2F)c(=O)c2ccccc2n1C`, the “hERG current change (%, negative = inhibition) at 1uM” value came to 13.1%.
Under `O=C(Nc1nc2c(s1)CCCC2)c1ccc(N2C(=O)CCC2=O)cc1` stands 5.6%.
Take `Cc1ccc(NC(=O)c2ccc(NCc3ccc(F)cc3)nc2)cc1`: the “hERG current change (%, negative = inhibition) at 1uM” value was 9.35%.
Under `COc1ccc(NC(=O)N2CCCC2C(=O)NCc2ccc(C)cc2)cc1` (centres unmarked) stands 15.8%; under `CC(C)[C@H](NC(=O)OC(C)(C)C)c1nnc(SCC(=O)Nc2ccc(Br)cc2)o1`, -0.0537%.
Under `O=c1[nH]c(=O)n(Cc2ccco2)c2c1C(C(F)(F)F)(C(F)(F)F)N=C(c1ccco1)N2` stands 10.5%; under `COc1cccc(C2C(C(=O)c3cc4ccccc4o3)=C(O)C(=O)N2c2cc(C)on2)c1OC` (centres unmarked), 13.4%; under `COc1cc(NS(=O)(=O)c2ccc(F)cc2)c(C(=O)O)cc1OC`, 11.8%.
Under `O=c1c2cc(Cl)ccc2[nH]c(=S)n1Cc1ccco1` stands -1.43%.
For `Cc1ccc(/C=C2\C(=O)NC(=S)N(c3ccc(F)cc3)C2=O)s1`, the “hERG current change (%, negative = inhibition) at 1uM” value stood at 5.04%.
Under `COc1ccccc1C(=O)Nc1c(-c2ccccc2)nc2ccccn12` stands 7.3%; under `CCOc1ccc(N(C)S(=O)(=O)c2ccc(-c3cc(C)no3)s2)cc1`, 15.5%.
Under `COc1ccc(C(=O)Nc2cc(C)nn2-c2ccc(C)cc2)cc1` stands 13.5%; under `Cc1cc(O)c2c(c1)C(=O)c1cc(O)cc(O)c1C2=O`, 7.15%.
Under `COc1ccc(NS(=O)(=O)c2cccc(C(=O)N/N=C/c3cccs3)c2)cc1` stands -0.292%; under `CCNC(=O)C(=O)NCCc1ccc(Cl)cc1`, 14.9%.
Take `O=[N+]([O-])c1cccc(C(=S)N2CCN(c3ccccc3F)CC2)c1`: the “hERG current change (%, negative = inhibition) at 1uM” value is given as 7.18%.
On to `CCOC(=O)Cc1nnc(NC(=O)c2ncn[nH]2)s1`, for which the “hERG current change (%, negative = inhibition) at 1uM” value was determined as 0.492%.
With `COC(=O)C1=C(c2c(C)noc2C)C[C@@H]2CC[C@H]1N2C(=O)N1CCCC1`, the “hERG current change (%, negative = inhibition) at 1uM” value was found to be 12.8%.
Regarding `O=C(O)CC/C(=C\c1ccc(Cl)c([N+](=O)[O-])c1)c1nc2ccccc2s1`, the “hERG current change (%, negative = inhibition) at 1uM” value amounted to 4.52%.
For the compound `COC(=O)C1=C(c2ccc(OC)c(OC)c2)C[C@@H]2CC[C@H]1N2C(=O)NCc1ccco1`, the “hERG current change (%, negative = inhibition) at 1uM” value came to 7.98%.
Take `Cc1ccccc1NC(=O)CC1SC(=Nc2ccc(O)cc2)NC1=O` (centres unmarked): the “hERG current change (%, negative = inhibition) at 1uM” value worked out at 16.3%.
Under `Nc1ccc(CCN2CCN(c3cccc(C(F)(F)F)c3)CC2)cc1` stands -27.7%; under `CCN(CC)S(=O)(=O)c1ccc(N2CCOCC2)c(NC(=O)c2ccc3c(c2)OCCO3)c1`, -4.45%; under `COc1ccc(CN(C(=S)Nc2ccccc2)C2CC(=O)N(c3ccccc3)C2=O)cc1` (centres unmarked), 17.8%.
With `O=C(CNS(=O)(=O)c1ccccc1)NCC(=O)OCc1ccc(Br)cc1`, the “hERG current change (%, negative = inhibition) at 1uM” value is given as 8.78%.
Under `Cc1nn(CC#N)c(=O)n1-c1ccc(Cl)cc1` stands 9.9%.
With `CC(C)CCNC(=O)C1CCN(c2nc3ccccc3o2)CC1`, the “hERG current change (%, negative = inhibition) at 1uM” value is listed as -1.04%.
On to `CCS(=O)(=O)N1CCN(c2ccnc3cc(Cl)ccc23)CC1`, for which the “hERG current change (%, negative = inhibition) at 1uM” value is given as -67.4%.
Under `CC(C)CCN(CC(=O)NC1CCCC1)C(=O)C(=O)Nc1ccc2c(c1)OCCO2` stands 7.55%; under `COc1ccccc1C1C2=C(N=C3SCC(=O)N31)c1ccccc1CC2` (centres unmarked), 8.23%.
On to `CC(=O)Nc1cccc(Nc2nc(-c3ccccc3F)nc3ccccc23)c1`, for which the “hERG current change (%, negative = inhibition) at 1uM” value came out at 12.2%.
Under `COc1ccc(N(Cc2cc3ccc(C)cc3[nH]c2=O)S(=O)(=O)c2ccccc2)cc1` stands 12.2%; under `Cc1ccc(CN2CCN(Cc3ccc4cccc(F)c4n3)CC2CCO)cc1` (centres unmarked), -33%.
For `C#CCNC(=O)C1=C[C@@H](c2ccccc2)C[C@@H](OCCCCO)O1`, the “hERG current change (%, negative = inhibition) at 1uM” value amounted to 7.6%.
Take `CC(C)c1ccc(NC(=O)CSc2nc(=O)n(CCCN3CCOCC3)c3c2CCC3)cc1`: the “hERG current change (%, negative = inhibition) at 1uM” value is listed as -8.72%.
For the compound `O=C(NNC(=S)NCc1ccc(Cl)cc1)c1ccc2c(c1)OCO2`, the “hERG current change (%, negative = inhibition) at 1uM” value is reported as 7.29%.
